{"source": "paper PMC12820563", "note": "This is one part of the list. The list includes weakly bound sequences.", "data": [{"biological_target": "T1, MBP-FoxP3dN (UniProt Q99JB6)", "T1 sequence": "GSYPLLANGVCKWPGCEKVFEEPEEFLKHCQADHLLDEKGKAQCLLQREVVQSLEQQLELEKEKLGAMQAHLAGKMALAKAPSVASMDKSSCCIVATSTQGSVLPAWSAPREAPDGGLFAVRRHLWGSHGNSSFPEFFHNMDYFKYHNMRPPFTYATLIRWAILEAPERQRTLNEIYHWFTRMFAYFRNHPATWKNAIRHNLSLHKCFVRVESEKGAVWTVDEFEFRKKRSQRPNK", "assay": "PD-seq (MBP pull-down with sequencing)", "conditions": "20 mM Tris-HCl pH 7.5, 100 mM NaCl, 1.5 mM MgCl2, 0.4 uM protein, 0.1 uM dsDNA library, 30 min, room temperature, amylose pull-down; high values mean tight binding; double strand, one strand shown", "values": [{"sequence": "GATGATTGTTCTCCCAGCTGATGAATTGGGTCCGTCGAGTAAACAAATTTTCCTAATCTTTCTGTTCAAGCGCCATCTAC", "binding signal (RPM ratio (pull-down/input))": 0.276}, {"sequence": "GATGATTGTTCTCCCAGCTGATGAATTGGCTCCCTCGAGTAAACAAATTTTCCTAATCTTTCTGTTCAAGCGCCATCTAC", "binding signal (RPM ratio (pull-down/input))": 0.272}, {"sequence": "GATGATTGTTCTCCCAGCTGATGAATTGTACCCGTCGAGTAAACAAATTTTCCTAATCTTTCTGTTCAAGCGCCATCTAC", "binding signal (RPM ratio (pull-down/input))": 0.337}, {"sequence": "GATGATTGTTCTCCCAGCTGATGAATTTGGTCGGTCGAGTAAACAAATTTTCCTAATCTTTCTGTTCAAGCGCCATCTAC", "binding signal (RPM ratio (pull-down/input))": 0.329}, {"sequence": "GATGATTGTTCTCCCAGCTGATGAATTCACATACTCGAGTAAACAAATTTTCCTAATCTTTCTGTTCAAGCGCCATCTAC", "binding signal (RPM ratio (pull-down/input))": 0.535}, {"sequence": "GATGATTGTTCTCCCAGCTGATGAATTACGTAGCTCGAGTAAACAAATTTTCCTAATCTTTCTGTTCAAGCGCCATCTAC", "binding signal (RPM ratio (pull-down/input))": 0.667}, {"sequence": "GATGATTGTTCTCCCAGCTGATGAATTTGCGACGTCGAGTAAACAAATTTTCCTAATCTTTCTGTTCAAGCGCCATCTAC", "binding signal (RPM ratio (pull-down/input))": 0.686}, {"sequence": "GATGATTGTTCTCCCAGCTGATGAATTCAACCACTCGAGTAAACAAATTTTCCTAATCTTTCTGTTCAAGCGCCATCTAC", "binding signal (RPM ratio (pull-down/input))": 0.39}, {"sequence": "GATGATTGTTCTCCCAGCTGATGAATTTCTTGCTTCGAGTAAACAAATTTTCCTAATCTTTCTGTTCAAGCGCCATCTAC", "binding signal (RPM ratio (pull-down/input))": 0.333}, {"sequence": "GATGATTGTTCTCCCAGCTGATGAATTCTCCAAATCGAGTAAACAAATTTTCCTAATCTTTCTGTTCAAGCGCCATCTAC", "binding signal (RPM ratio (pull-down/input))": 0.202}, {"sequence": "GATGATTGTTCTCCCAGCTGATGAATTTGTTTCATCGAGTAAACAAATTTTCCTAATCTTTCTGTTCAAGCGCCATCTAC", "binding signal (RPM ratio (pull-down/input))": 5.47}, {"sequence": "GATGATTGTTCTCCCAGCTGATGAATTTTTAGAATCGAGTAAACAAATTTTCCTAATCTTTCTGTTCAAGCGCCATCTAC", "binding signal (RPM ratio (pull-down/input))": 0.201}, {"sequence": "GATGATTGTTCTCCCAGCTGATGAATTAGGCGGTTCGAGTAAACAAATTTTCCTAATCTTTCTGTTCAAGCGCCATCTAC", "binding signal (RPM ratio (pull-down/input))": 0.736}, {"sequence": "GATGATTGTTCTCCCAGCTGATGAATTTGGTGGGTCGAGTAAACAAATTTTCCTAATCTTTCTGTTCAAGCGCCATCTAC", "binding signal (RPM ratio (pull-down/input))": 1.57}, {"sequence": "GATGATTGTTCTCCCAGCTGATGAATTGCCCAACTCGAGTAAACAAATTTTCCTAATCTTTCTGTTCAAGCGCCATCTAC", "binding signal (RPM ratio (pull-down/input))": 0.42}, {"sequence": "GATGATTGTTCTCCCAGCTGATGAATTACGACAATCGAGTAAACAAATTTTCCTAATCTTTCTGTTCAAGCGCCATCTAC", "binding signal (RPM ratio (pull-down/input))": 0.598}, {"sequence": "GATGATTGTTCTCCCAGCTGATGAATTGCAGACGTCGAGTAAACAAATTTTCCTAATCTTTCTGTTCAAGCGCCATCTAC", "binding signal (RPM ratio (pull-down/input))": 0.531}, {"sequence": "GATGATTGTTCTCCCAGCTGATGAATTTAGGGTATCGAGTAAACAAATTTTCCTAATCTTTCTGTTCAAGCGCCATCTAC", "binding signal (RPM ratio (pull-down/input))": 1.02}, {"sequence": "GATGATTGTTCTCCCAGCTGATGAATTCCGAGCCTCGAGTAAACAAATTTTCCTAATCTTTCTGTTCAAGCGCCATCTAC", "binding signal (RPM ratio (pull-down/input))": 0.427}, {"sequence": "GATGATTGTTCTCCCAGCTGATGAATTTTCTCCATCGAGTAAACAAATTTTCCTAATCTTTCTGTTCAAGCGCCATCTAC", "binding signal (RPM ratio (pull-down/input))": 0.266}, {"sequence": "GATGATTGTTCTCCCAGCTGATGAATTTTTTTATTCGAGTAAACAAATTTTCCTAATCTTTCTGTTCAAGCGCCATCTAC", "binding signal (RPM ratio (pull-down/input))": 0.313}, {"sequence": "GATGATTGTTCTCCCAGCTGATGAATTACCTTGGTCGAGTAAACAAATTTTCCTAATCTTTCTGTTCAAGCGCCATCTAC", "binding signal (RPM ratio (pull-down/input))": 0.26}, {"sequence": "GATGATTGTTCTCCCAGCTGATGAATTATGCCGGTCGAGTAAACAAATTTTCCTAATCTTTCTGTTCAAGCGCCATCTAC", "binding signal (RPM ratio (pull-down/input))": 1.15}, {"sequence": "GATGATTGTTCTCCCAGCTGATGAATTTAACTCCTCGAGTAAACAAATTTTCCTAATCTTTCTGTTCAAGCGCCATCTAC", "binding signal (RPM ratio (pull-down/input))": 0.351}, {"sequence": "GATGATTGTTCTCCCAGCTGATGAATTTTCTAAGTCGAGTAAACAAATTTTCCTAATCTTTCTGTTCAAGCGCCATCTAC", "binding signal (RPM ratio (pull-down/input))": 0.193}, {"sequence": "GATGATTGTTCTCCCAGCTGATGAATTAAGCAGCTCGAGTAAACAAATTTTCCTAATCTTTCTGTTCAAGCGCCATCTAC", "binding signal (RPM ratio (pull-down/input))": 1.33}, {"sequence": "GATGATTGTTCTCCCAGCTGATGAATTCACCGTGTCGAGTAAACAAATTTTCCTAATCTTTCTGTTCAAGCGCCATCTAC", "binding signal (RPM ratio (pull-down/input))": 0.424}, {"sequence": "GATGATTGTTCTCCCAGCTGATGAATTTATGTAATCGAGTAAACAAATTTTCCTAATCTTTCTGTTCAAGCGCCATCTAC", "binding signal (RPM ratio (pull-down/input))": 2.2}, {"sequence": "GATGATTGTTCTCCCAGCTGATGAATTGCCTATGTCGAGTAAACAAATTTTCCTAATCTTTCTGTTCAAGCGCCATCTAC", "binding signal (RPM ratio (pull-down/input))": 0.617}, {"sequence": "GATGATTGTTCTCCCAGCTGATGAATTGGTGAGCTCGAGTAAACAAATTTTCCTAATCTTTCTGTTCAAGCGCCATCTAC", "binding signal (RPM ratio (pull-down/input))": 0.441}, {"sequence": "GATGATTGTTCTCCCAGCTGATGAATTAGAAGGTTCGAGTAAACAAATTTTCCTAATCTTTCTGTTCAAGCGCCATCTAC", "binding signal (RPM ratio (pull-down/input))": 0.276}, {"sequence": "GATGATTGTTCTCCCAGCTGATGAATTGGCCGATTCGAGTAAACAAATTTTCCTAATCTTTCTGTTCAAGCGCCATCTAC", "binding signal (RPM ratio (pull-down/input))": 0.305}]}]}
